Measured values as given in the supplement of paper PMC6451100.
This is one part of the list. Read counts after selection give these values, which scatter widely.

Biological target: T1, Drosophila AGO2 (FLAG-tagged, S2-R+ lysate) (UniProt Q9VUQ5)
T1 sequence: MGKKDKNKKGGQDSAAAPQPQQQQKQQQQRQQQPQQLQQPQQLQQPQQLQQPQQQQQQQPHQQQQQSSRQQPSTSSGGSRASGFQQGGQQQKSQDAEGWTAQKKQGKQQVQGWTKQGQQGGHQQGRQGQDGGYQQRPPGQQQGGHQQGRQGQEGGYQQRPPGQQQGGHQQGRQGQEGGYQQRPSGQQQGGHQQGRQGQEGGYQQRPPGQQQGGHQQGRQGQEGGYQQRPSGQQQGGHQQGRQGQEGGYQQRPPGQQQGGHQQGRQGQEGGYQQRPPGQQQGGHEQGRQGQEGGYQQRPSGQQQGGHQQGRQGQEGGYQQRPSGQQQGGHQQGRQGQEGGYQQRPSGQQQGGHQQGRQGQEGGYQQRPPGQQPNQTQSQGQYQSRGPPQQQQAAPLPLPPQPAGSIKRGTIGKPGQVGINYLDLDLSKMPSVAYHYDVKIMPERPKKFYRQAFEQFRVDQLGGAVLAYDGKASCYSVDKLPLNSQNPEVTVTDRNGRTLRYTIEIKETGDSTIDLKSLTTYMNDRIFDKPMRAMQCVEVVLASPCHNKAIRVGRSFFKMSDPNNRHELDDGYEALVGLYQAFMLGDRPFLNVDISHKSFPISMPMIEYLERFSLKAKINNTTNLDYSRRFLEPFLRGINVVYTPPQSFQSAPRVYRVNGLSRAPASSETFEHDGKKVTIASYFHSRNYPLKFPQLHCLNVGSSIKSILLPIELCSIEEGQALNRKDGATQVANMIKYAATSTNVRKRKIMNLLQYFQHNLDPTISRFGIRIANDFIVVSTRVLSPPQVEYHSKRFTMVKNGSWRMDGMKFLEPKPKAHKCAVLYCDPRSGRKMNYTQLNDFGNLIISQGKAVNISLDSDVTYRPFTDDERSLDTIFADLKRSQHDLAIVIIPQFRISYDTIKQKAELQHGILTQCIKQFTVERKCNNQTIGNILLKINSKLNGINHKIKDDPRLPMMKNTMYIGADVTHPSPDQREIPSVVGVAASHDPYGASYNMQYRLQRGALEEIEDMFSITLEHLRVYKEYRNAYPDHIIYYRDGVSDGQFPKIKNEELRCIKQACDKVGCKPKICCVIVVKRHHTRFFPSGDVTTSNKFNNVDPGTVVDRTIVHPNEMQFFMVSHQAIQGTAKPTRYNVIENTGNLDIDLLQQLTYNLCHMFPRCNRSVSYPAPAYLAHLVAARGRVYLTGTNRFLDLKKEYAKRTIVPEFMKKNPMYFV
Assay: AGO2 loading enrichment factor (IP read count / input read count, not library-size normalised) (ratio); higher = more efficient loading into AGO2
Settings: randomized region: 5' 5N of miR-317 loop
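Further: Per-sequence enrichment computed with FASTAptamer, counting only reads that carry the expected constant 3′ region.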

| Sequence | AGO2 loading enrichment factor |
| --- | --- |
| CGTGCTGAAATGCAAGCAAG | 0.298 |
| CGACTTGAAATGCAAGCAAG | 0.154 |
| CGCCCTGAAATGCAAGCAAG | 0.275 |
| GTGTGTGAAATGCAAGCAAG | 0.401 |
| TCATTTGAAATGCAAGCAAG | 0.524 |
| ATGGATGAAATGCAAGCAAG | 0.778 |
| ATTCGTGAAATGCAAGCAAG | 0.341 |
| TTTTGTGAAATGCAAGCAAG | 0.674 |
| CCAATTGAAATGCAAGCAAG | 0.33 |
| TTCCTTGAAATGCAAGCAAG | 0.72 |
| CACGATGAAATGCAAGCAAG | 0.331 |
| CGATGTGAAATGCAAGCAAG | 0.316 |
| GGTCCTGAAATGCAAGCAAG | 1.28 |
| TTGACTGAAATGCAAGCAAG | 0.645 |
| ACGTATGAAATGCAAGCAAG | 0.5 |
| GAGTGTGAAATGCAAGCAAG | 0.365 |
| TTTGGTGAAATGCAAGCAAG | 0.614 |
| AAAGTTGAAATGCAAGCAAG | 0.301 |
| AAATGTGAAATGCAAGCAAG | 0.249 |
| GAGGATGAAATGCAAGCAAG | 2.37 |
| CGGCATGAAATGCAAGCAAG | 0.276 |
| GCAGATGAAATGCAAGCAAG | 0.185 |
| ATTACTGAAATGCAAGCAAG | 0.458 |
| CCTCCTGAAATGCAAGCAAG | 0.237 |
| TAGCCTGAAATGCAAGCAAG | 0.215 |

| Sequence | AGO2 loading enrichment factor |
| --- | --- |
| ACCGCTGAAATGCAAGCAAG | 0.13 |
| GCCTTTGAAATGCAAGCAAG | 0.264 |
| TCCACTGAAATGCAAGCAAG | 0.475 |
| CTTACTGAAATGCAAGCAAG | 0.0344 |
| AGGCCTGAAATGCAAGCAAG | 0.425 |
| GATCCTGAAATGCAAGCAAG | 0.627 |
| CGTGATGAAATGCAAGCAAG | 0.374 |
| CCCTGTGAAATGCAAGCAAG | 0.263 |
| AACCATGAAATGCAAGCAAG | 0.607 |
| GCATTTGAAATGCAAGCAAG | 0.0369 |
| TTGTTTGAAATGCAAGCAAG | 0.157 |
| CGGACTGAAATGCAAGCAAG | 0.761 |
| ATCTATGAAATGCAAGCAAG | 0.416 |
| GCTTTTGAAATGCAAGCAAG | 0.0717 |
| AAGGATGAAATGCAAGCAAG | 0.892 |
| ACCCCTGAAATGCAAGCAAG | 0.2 |
| TTCAATGAAATGCAAGCAAG | 0.461 |
| GGGGGTGAAATGCAAGCAAG | 12.9 |
| TGTGCTGAAATGCAAGCAAG | 0.288 |
| AGAACTGAAATGCAAGCAAG | 0.487 |
| GGCGATGAAATGCAAGCAAG | 0.753 |
| CTGCCTGAAATGCAAGCAAG | 1.05 |
| GATTGTGAAATGCAAGCAAG | 0.168 |
| GGTCATGAAATGCAAGCAAG | 0.75 |
| GCGCGTGAAATGCAAGCAAG | 0.0959 |

| Sequence | AGO2 loading enrichment factor |
| --- | --- |
| CCACCTGAAATGCAAGCAAG | 0.223 |
| TCAAGTGAAATGCAAGCAAG | 0.455 |
| CATTGTGAAATGCAAGCAAG | 0.12 |
| GAAATTGAAATGCAAGCAAG | 0.346 |
| CCTGTTGAAATGCAAGCAAG | 0.323 |
| ACCTCTGAAATGCAAGCAAG | 0.189 |
| GACGTTGAAATGCAAGCAAG | 0.401 |
| GACATTGAAATGCAAGCAAG | 0.349 |
| TACGCTGAAATGCAAGCAAG | 0.13 |
| AAAATTGAAATGCAAGCAAG | 0.372 |
| GGTCGTGAAATGCAAGCAAG | 3.67 |
| CCTAATGAAATGCAAGCAAG | 0.296 |
| ACATCTGAAATGCAAGCAAG | 0.465 |
| AACTCTGAAATGCAAGCAAG | 0.371 |
| AAACCTGAAATGCAAGCAAG | 0.314 |
| GAGGCTGAAATGCAAGCAAG | 0.207 |
| GCATATGAAATGCAAGCAAG | 0.0855 |
| TCAGTTGAAATGCAAGCAAG | 0.326 |
| GGAGTTGAAATGCAAGCAAG | 2.23 |
| CAAGTTGAAATGCAAGCAAG | 0.236 |
| AATAATGAAATGCAAGCAAG | 0.388 |
| ACTAATGAAATGCAAGCAAG | 0.357 |
| TCAGCTGAAATGCAAGCAAG | 0.202 |
| GAGTCTGAAATGCAAGCAAG | 0.417 |
| AGTTGTGAAATGCAAGCAAG | 0.33 |

| Sequence | AGO2 loading enrichment factor |
| --- | --- |
| GGTGCTGAAATGCAAGCAAG | 0.34 |
| TATTGTGAAATGCAAGCAAG | 0.224 |
| AAATCTGAAATGCAAGCAAG | 0.317 |
| CATAATGAAATGCAAGCAAG | 0.374 |
| GTTCGTGAAATGCAAGCAAG | 0.251 |
| GGGTCTGAAATGCAAGCAAG | 2.55 |
| TGGATTGAAATGCAAGCAAG | 0.512 |
| GGTACTGAAATGCAAGCAAG | 0.636 |
| TCAACTGAAATGCAAGCAAG | 0.385 |
| GATCATGAAATGCAAGCAAG | 0.482 |
| GTATGTGAAATGCAAGCAAG | 0.289 |
| TGCGTTGAAATGCAAGCAAG | 0.192 |
| ATGTATGAAATGCAAGCAAG | 0.368 |
| GATGGTGAAATGCAAGCAAG | 2.1 |
| GAGTATGAAATGCAAGCAAG | 0.47 |
| AACATTGAAATGCAAGCAAG | 0.346 |
| TGGTATGAAATGCAAGCAAG | 0.465 |
| GGGGCTGAAATGCAAGCAAG | 1.13 |
| GTCCTTGAAATGCAAGCAAG | 0.679 |
| AGAATTGAAATGCAAGCAAG | 0.379 |
| CGCATTGAAATGCAAGCAAG | 0.259 |
| GGCTTTGAAATGCAAGCAAG | 0.27 |
| GAACATGAAATGCAAGCAAG | 0.404 |
